B1: Caulobacter ParB omega fusion; a variant is named by its letters at X, in order, B8GW30 (parent)
chain: MESVVVGEPGMSEGRRGLGRGLSALLGEVDAAPAQAPGEQLGGSREAPIEILQRNPDQPRRTFREEDLEDLSNSIREKGVLQPILVRPSPDTAGEYQIVAGERAWRAAQRAGLKTVPIMVRELDDLAVLEIGIIENVQRADLNVLEEALSYKVLMEKFERTQENIAQTIGKSXSHVANXMRLLXLPDEVQSYLVSGELTAXHARAIAAAADPVALAKQIIEGGLSVRETEALARKAPNLSAGKSKGGRPPRVKDTDTQALESDLSSVLGLDVSIDHRGSTGTLTITYATLEQLDDLCNRLTRGI

The full ranking holds about 81,000 sequences; the median of “one-hybrid fitness for binding parS DNA” is about -0.17, and the highest 2% start at about 0.51. This is one part of the list.

In this test the parent is B1. Nature of the test: one-hybrid fitness for binding parS DNA (scaled: cognate 1, non-cognate 0); higher = stronger binding. The conditions noted are these: with parS DNA site. The method, boiled down: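 Fitness here means the log change in variant-to-wild-type read ratio between plasmids sequenced before and after selection. That scale was set so cognate equals 1 and non-cognate equals 0. The selection was a bacterial one-hybrid screen of Caulobacter ParB libraries, four specificity codons randomised, in E. coli USO carrying a HIS3 reporter with the site 19 bp from the promoter, grown 48 hours at 37°C on M9-minus-histidine with 0.1 mM IPTG and 5 mM 3-AT.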
Take TDEN: the “one-hybrid fitness for binding parS DNA” value is at most 0.2.

For the variant HWKT, the “one-hybrid fitness for binding parS DNA” value was at most 0.2.

Turning to FQIC, the “one-hybrid fitness for binding parS DNA” value was at most 0.2.

Take QTFR: the “one-hybrid fitness for binding parS DNA” value was at most 0.2.

Regarding YDSV, the “one-hybrid fitness for binding parS DNA” value is at most 0.2.

Regarding RDTG, the “one-hybrid fitness for binding parS DNA” value was at most 0.2.

VRIT: the “one-hybrid fitness for binding parS DNA” value is at most 0.2.

Consider SGFG, for which the “one-hybrid fitness for binding parS DNA” value is at most 0.2.

In the case of GICR, the “one-hybrid fitness for binding parS DNA” value was at most 0.2.

Turning to KTWT, the “one-hybrid fitness for binding parS DNA” value is at most 0.2.

YHYT: the “one-hybrid fitness for binding parS DNA” value is at most 0.2.

For PTMP, the “one-hybrid fitness for binding parS DNA” value is at most 0.2.

For DQAA, the “one-hybrid fitness for binding parS DNA” value is at most 0.2.

HHCR: the “one-hybrid fitness for binding parS DNA” value was at most 0.2.

Take SAQN: the “one-hybrid fitness for binding parS DNA” value is at most 0.2.

In the case of CMVE, the “one-hybrid fitness for binding parS DNA” value was at most 0.2.

With CRNS, the “one-hybrid fitness for binding parS DNA” value was at most 0.2.

As to AGSV, the “one-hybrid fitness for binding parS DNA” value is at most 0.2.

Turning to AETT, the “one-hybrid fitness for binding parS DNA” value is at most 0.2.

With CQST, the “one-hybrid fitness for binding parS DNA” value was at most 0.2.

For the variant RDLS, the “one-hybrid fitness for binding parS DNA” value is at most 0.2.

With RWKN, the “one-hybrid fitness for binding parS DNA” value is 0.421.

For the variant ITSC, the “one-hybrid fitness for binding parS DNA” value was at most 0.2.

As to PIAK, the “one-hybrid fitness for binding parS DNA” value is at most 0.2.

On to HYLG, for which the “one-hybrid fitness for binding parS DNA” value was at most 0.2.

Regarding LRRV, the “one-hybrid fitness for binding parS DNA” value is at most 0.2.

Regarding RQTA, the “one-hybrid fitness for binding parS DNA” value came out at 0.574.

As to DCPE, the “one-hybrid fitness for binding parS DNA” value is at most 0.2.

Turning to NLSY, the “one-hybrid fitness for binding parS DNA” value was at most 0.2.

Take RSTD: the “one-hybrid fitness for binding parS DNA” value was at most 0.2.

With RKKY, the “one-hybrid fitness for binding parS DNA” value was 0.492.

On to ESED, for which the “one-hybrid fitness for binding parS DNA” value is at most 0.2.

For HPSK, the “one-hybrid fitness for binding parS DNA” value was at most 0.2.

For RYNY, the “one-hybrid fitness for binding parS DNA” value amounted to 0.466.

For the variant RSPG, the “one-hybrid fitness for binding parS DNA” value worked out at 0.507.

On to MMCS, for which the “one-hybrid fitness for binding parS DNA” value was at most 0.2.

For the variant SWAC, the “one-hybrid fitness for binding parS DNA” value was at most 0.2.

NRNI: the “one-hybrid fitness for binding parS DNA” value is at most 0.2.

In the case of ERTT, the “one-hybrid fitness for binding parS DNA” value was at most 0.2.

Consider RRCG, for which the “one-hybrid fitness for binding parS DNA” value was determined as 0.758.

Regarding YDYR, the “one-hybrid fitness for binding parS DNA” value was at most 0.2.

Regarding NSHT, the “one-hybrid fitness for binding parS DNA” value was at most 0.2.

CGHS: the “one-hybrid fitness for binding parS DNA” value was at most 0.2.

As to NVHF, the “one-hybrid fitness for binding parS DNA” value is at most 0.2.

As for IVET, the “one-hybrid fitness for binding parS DNA” value was at most 0.2.

For the variant VKLK, the “one-hybrid fitness for binding parS DNA” value was at most 0.2.

Consider AVHP, for which the “one-hybrid fitness for binding parS DNA” value is at most 0.2.

AYHS: the “one-hybrid fitness for binding parS DNA” value is at most 0.2.

For NDGS, the “one-hybrid fitness for binding parS DNA” value is at most 0.2.

For NWAF, the “one-hybrid fitness for binding parS DNA” value is at most 0.2.

Take TGCV: the “one-hybrid fitness for binding parS DNA” value is at most 0.2.

Consider TWHR, for which the “one-hybrid fitness for binding parS DNA” value was at most 0.2.

Regarding ILLI, the “one-hybrid fitness for binding parS DNA” value was at most 0.2.

For the variant MWCC, the “one-hybrid fitness for binding parS DNA” value was at most 0.2.

For DTKR, the “one-hybrid fitness for binding parS DNA” value is at most 0.2.

Regarding TVMK, the “one-hybrid fitness for binding parS DNA” value was at most 0.2.

Take IDRG: the “one-hybrid fitness for binding parS DNA” value is at most 0.2.

With TCRK, the “one-hybrid fitness for binding parS DNA” value was at most 0.2.

For the variant GFTI, the “one-hybrid fitness for binding parS DNA” value was at most 0.2.

RLRW: the “one-hybrid fitness for binding parS DNA” value was found to be 0.259.

For the variant GVAN, the “one-hybrid fitness for binding parS DNA” value was at most 0.2.

In the case of NYHF, the “one-hybrid fitness for binding parS DNA” value was at most 0.2.

Regarding HGAM, the “one-hybrid fitness for binding parS DNA” value was at most 0.2.

For the variant RHTK, the “one-hybrid fitness for binding parS DNA” value was at most 0.2.

Turning to KMKI, the “one-hybrid fitness for binding parS DNA” value is at most 0.2.

As for HTGE, the “one-hybrid fitness for binding parS DNA” value was at most 0.2.

As for TPTL, the “one-hybrid fitness for binding parS DNA” value is at most 0.2.

With HYKR, the “one-hybrid fitness for binding parS DNA” value was at most 0.2.

Regarding VETT, the “one-hybrid fitness for binding parS DNA” value was at most 0.2.

As to VKGS, the “one-hybrid fitness for binding parS DNA” value is at most 0.2.

In the case of HFTP, the “one-hybrid fitness for binding parS DNA” value is at most 0.2.

Turning to LRHG, the “one-hybrid fitness for binding parS DNA” value was at most 0.2.

Consider DKER, for which the “one-hybrid fitness for binding parS DNA” value was at most 0.2.

Regarding TLRK, the “one-hybrid fitness for binding parS DNA” value was at most 0.2.

Turning to ESTL, the “one-hybrid fitness for binding parS DNA” value was at most 0.2.

With QDAQ, the “one-hybrid fitness for binding parS DNA” value was at most 0.2.

In the case of RHDD, the “one-hybrid fitness for binding parS DNA” value was at most 0.2.

Turning to YKNF, the “one-hybrid fitness for binding parS DNA” value was at most 0.2.

Take RNAT: the “one-hybrid fitness for binding parS DNA” value came to 0.686.

Consider KLAD, for which the “one-hybrid fitness for binding parS DNA” value is at most 0.2.

For RLRT, the “one-hybrid fitness for binding parS DNA” value was determined as 0.834.

Turning to HPNC, the “one-hybrid fitness for binding parS DNA” value was at most 0.2.

Turning to ACVH, the “one-hybrid fitness for binding parS DNA” value was at most 0.2.

On to ENEG, for which the “one-hybrid fitness for binding parS DNA” value was at most 0.2.

Turning to HHRS, the “one-hybrid fitness for binding parS DNA” value is at most 0.2.

For the variant TSEH, the “one-hybrid fitness for binding parS DNA” value was at most 0.2.

As to RMQQ, the “one-hybrid fitness for binding parS DNA” value is at most 0.2.

As for FKAW, the “one-hybrid fitness for binding parS DNA” value is at most 0.2.

Take ALVW: the “one-hybrid fitness for binding parS DNA” value was at most 0.2.

Take SGIS: the “one-hybrid fitness for binding parS DNA” value is at most 0.2.

For the variant GKER, the “one-hybrid fitness for binding parS DNA” value was at most 0.2.

Take RIRS: the “one-hybrid fitness for binding parS DNA” value is 0.874.

On to HNPR, for which the “one-hybrid fitness for binding parS DNA” value is at most 0.2.

Turning to PDKP, the “one-hybrid fitness for binding parS DNA” value was at most 0.2.

With STPV, the “one-hybrid fitness for binding parS DNA” value is at most 0.2.

Consider INMS, for which the “one-hybrid fitness for binding parS DNA” value is at most 0.2.

Turning to DLIA, the “one-hybrid fitness for binding parS DNA” value was at most 0.2.

QAWS: the “one-hybrid fitness for binding parS DNA” value is at most 0.2.

With REEM, the “one-hybrid fitness for binding parS DNA” value was at most 0.2.

Consider EMST, for which the “one-hybrid fitness for binding parS DNA” value was at most 0.2.

FGRV: the “one-hybrid fitness for binding parS DNA” value was at most 0.2.

Regarding CLDA, the “one-hybrid fitness for binding parS DNA” value was at most 0.2.

For CQTL, the “one-hybrid fitness for binding parS DNA” value was at most 0.2.

As to KRTA, the “one-hybrid fitness for binding parS DNA” value was at most 0.2.

Turning to AYTS, the “one-hybrid fitness for binding parS DNA” value was at most 0.2.

Turning to RTMP, the “one-hybrid fitness for binding parS DNA” value was at most 0.2.

On to QCTS, for which the “one-hybrid fitness for binding parS DNA” value is at most 0.2.

For the variant IATM, the “one-hybrid fitness for binding parS DNA” value was at most 0.2.

As to FSIT, the “one-hybrid fitness for binding parS DNA” value is at most 0.2.

Take SAIT: the “one-hybrid fitness for binding parS DNA” value was at most 0.2.

For WRHR, the “one-hybrid fitness for binding parS DNA” value was at most 0.2.

For the variant AVHW, the “one-hybrid fitness for binding parS DNA” value is at most 0.2.

As for NMGR, the “one-hybrid fitness for binding parS DNA” value was at most 0.2.

With CHQM, the “one-hybrid fitness for binding parS DNA” value was at most 0.2.

As for MFKT, the “one-hybrid fitness for binding parS DNA” value was at most 0.2.

Regarding TFDS, the “one-hybrid fitness for binding parS DNA” value was at most 0.2.

Regarding HCAW, the “one-hybrid fitness for binding parS DNA” value was at most 0.2.

As to NKWE, the “one-hybrid fitness for binding parS DNA” value was at most 0.2.

In the case of QNIV, the “one-hybrid fitness for binding parS DNA” value is at most 0.2.

Regarding LSHH, the “one-hybrid fitness for binding parS DNA” value is at most 0.2.

HMNT: the “one-hybrid fitness for binding parS DNA” value is at most 0.2.

Regarding AKPV, the “one-hybrid fitness for binding parS DNA” value was at most 0.2.

For the variant HLGE, the “one-hybrid fitness for binding parS DNA” value is at most 0.2.

On to QEMV, for which the “one-hybrid fitness for binding parS DNA” value is at most 0.2.

Turning to DCNV, the “one-hybrid fitness for binding parS DNA” value is at most 0.2.

As for FDRG, the “one-hybrid fitness for binding parS DNA” value was at most 0.2.

As for YYIS, the “one-hybrid fitness for binding parS DNA” value is at most 0.2.

In the case of GFTV, the “one-hybrid fitness for binding parS DNA” value is at most 0.2.

Regarding NGKG, the “one-hybrid fitness for binding parS DNA” value is at most 0.2.

Consider PRGF, for which the “one-hybrid fitness for binding parS DNA” value is at most 0.2.

On to EKDR, for which the “one-hybrid fitness for binding parS DNA” value is at most 0.2.

As to CVHY, the “one-hybrid fitness for binding parS DNA” value is at most 0.2.

On to EPTS, for which the “one-hybrid fitness for binding parS DNA” value is at most 0.2.

In the case of ITST, the “one-hybrid fitness for binding parS DNA” value is at most 0.2.

As to IYSS, the “one-hybrid fitness for binding parS DNA” value is at most 0.2.

Regarding VKEG, the “one-hybrid fitness for binding parS DNA” value was at most 0.2.

Regarding AHPN, the “one-hybrid fitness for binding parS DNA” value was at most 0.2.

For the variant AVKY, the “one-hybrid fitness for binding parS DNA” value was at most 0.2.

As to RQRD, the “one-hybrid fitness for binding parS DNA” value was at most 0.2.

With HSQC, the “one-hybrid fitness for binding parS DNA” value is at most 0.2.

Consider DRVR, for which the “one-hybrid fitness for binding parS DNA” value was at most 0.2.

On to LTPN, for which the “one-hybrid fitness for binding parS DNA” value is at most 0.2.

On to SASG, for which the “one-hybrid fitness for binding parS DNA” value was at most 0.2.

Turning to CGML, the “one-hybrid fitness for binding parS DNA” value was at most 0.2.

As to YIIN, the “one-hybrid fitness for binding parS DNA” value is at most 0.2.

Take MHVD: the “one-hybrid fitness for binding parS DNA” value was at most 0.2.

As for MWMS, the “one-hybrid fitness for binding parS DNA” value is at most 0.2.

Consider VMYR, for which the “one-hybrid fitness for binding parS DNA” value was at most 0.2.

With QQQI, the “one-hybrid fitness for binding parS DNA” value was at most 0.2.

Take AGYS: the “one-hybrid fitness for binding parS DNA” value was at most 0.2.

In the case of MHNL, the “one-hybrid fitness for binding parS DNA” value is at most 0.2.

As for QCPH, the “one-hybrid fitness for binding parS DNA” value was at most 0.2.

ATEE: the “one-hybrid fitness for binding parS DNA” value was at most 0.2.

These data come from a collection of fitness landscapes (doi:10.1016/j.celrep.2020.107928).
